Target: the molecule itself
Assay: native gel or EMSA

B1: TRPA1a-EGFP (mouse TRPA1a, full-length TRPA1, tagged with EGFP) (natural protein)
chain: [… about 700 residues …]MMNLGSYCLGLIPMTLLVVKIQPGMAFNSTGIINGTSSTHEERIDTLNSFPIKICMILVFLSSIFGYCKEVIQIFQQKRNYFLDYNNALEWVIYTTSIIFVLPLFLNIPAYMQWQCGAIAIFFYWMNFLLYLQRFENCGIFIVMLEVIFKTLLRSTGVFIFLLLAFGLSFYVLLNFQDAFSTPLLSLIQTFSMMLGDINYRDAFLEPLFRNELAYPVLTFGQLIAFTMFVPIVLMNLLI[… about 150 residues …]
stoichiometry N: 4
